PubChem BioAssay AID1347165 (National Center for Advancing Translational Sciences (NCATS), 2019)
The campaign covered roughly 220,000 compounds. About 5,700 (2.6%) were called active. Inconclusive means that the source gave no clear call. Such entries were picked first, then a sample of the others. Calls come from the whole dose curve; as a rule, active = well fitted inhibition curve with a large enough effect; inconclusive = small, poorly fitted or top-dose-only effect; inactive = no such curve, though single readings can be large or run the other way. A potency beside an inconclusive call is a rough fit, not a confirmed value.

target: Lysine-specific demethylase 5B (Homo sapiens) (UniProt Q9UGL1); experiment: Primary screen for KDM5B Histone Demethylases FDH-coupled qHTS; conditions: FDH-coupled NADH fluorescence (FDH is formaldehyde dehydrogenase); activity change, negative = inhibition: at 57.7 µM (top of the series) unless noted; note: nearly all actives have a fitted effect of over 70% in size; for activity change, negative = inhibition: 0% is about no effect
Outline: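 Measured: NADH fluorescence change, 30 min, RT. System: KDM5BΔAP 200 nM final, H3K4me3 peptide, α-KG, Fe(II), ascorbate, NAD⁺ plus FDH, pH 7.5 HEPES. Compounds: titrated, 10 min pre-incubation with enzyme.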
Potency is the fitted concentration of half-maximal effect; tags give direction and shape of the fitted curve.

Chain of UniProt Q9UGL1 (Q9UGL1 whole entry, looked up): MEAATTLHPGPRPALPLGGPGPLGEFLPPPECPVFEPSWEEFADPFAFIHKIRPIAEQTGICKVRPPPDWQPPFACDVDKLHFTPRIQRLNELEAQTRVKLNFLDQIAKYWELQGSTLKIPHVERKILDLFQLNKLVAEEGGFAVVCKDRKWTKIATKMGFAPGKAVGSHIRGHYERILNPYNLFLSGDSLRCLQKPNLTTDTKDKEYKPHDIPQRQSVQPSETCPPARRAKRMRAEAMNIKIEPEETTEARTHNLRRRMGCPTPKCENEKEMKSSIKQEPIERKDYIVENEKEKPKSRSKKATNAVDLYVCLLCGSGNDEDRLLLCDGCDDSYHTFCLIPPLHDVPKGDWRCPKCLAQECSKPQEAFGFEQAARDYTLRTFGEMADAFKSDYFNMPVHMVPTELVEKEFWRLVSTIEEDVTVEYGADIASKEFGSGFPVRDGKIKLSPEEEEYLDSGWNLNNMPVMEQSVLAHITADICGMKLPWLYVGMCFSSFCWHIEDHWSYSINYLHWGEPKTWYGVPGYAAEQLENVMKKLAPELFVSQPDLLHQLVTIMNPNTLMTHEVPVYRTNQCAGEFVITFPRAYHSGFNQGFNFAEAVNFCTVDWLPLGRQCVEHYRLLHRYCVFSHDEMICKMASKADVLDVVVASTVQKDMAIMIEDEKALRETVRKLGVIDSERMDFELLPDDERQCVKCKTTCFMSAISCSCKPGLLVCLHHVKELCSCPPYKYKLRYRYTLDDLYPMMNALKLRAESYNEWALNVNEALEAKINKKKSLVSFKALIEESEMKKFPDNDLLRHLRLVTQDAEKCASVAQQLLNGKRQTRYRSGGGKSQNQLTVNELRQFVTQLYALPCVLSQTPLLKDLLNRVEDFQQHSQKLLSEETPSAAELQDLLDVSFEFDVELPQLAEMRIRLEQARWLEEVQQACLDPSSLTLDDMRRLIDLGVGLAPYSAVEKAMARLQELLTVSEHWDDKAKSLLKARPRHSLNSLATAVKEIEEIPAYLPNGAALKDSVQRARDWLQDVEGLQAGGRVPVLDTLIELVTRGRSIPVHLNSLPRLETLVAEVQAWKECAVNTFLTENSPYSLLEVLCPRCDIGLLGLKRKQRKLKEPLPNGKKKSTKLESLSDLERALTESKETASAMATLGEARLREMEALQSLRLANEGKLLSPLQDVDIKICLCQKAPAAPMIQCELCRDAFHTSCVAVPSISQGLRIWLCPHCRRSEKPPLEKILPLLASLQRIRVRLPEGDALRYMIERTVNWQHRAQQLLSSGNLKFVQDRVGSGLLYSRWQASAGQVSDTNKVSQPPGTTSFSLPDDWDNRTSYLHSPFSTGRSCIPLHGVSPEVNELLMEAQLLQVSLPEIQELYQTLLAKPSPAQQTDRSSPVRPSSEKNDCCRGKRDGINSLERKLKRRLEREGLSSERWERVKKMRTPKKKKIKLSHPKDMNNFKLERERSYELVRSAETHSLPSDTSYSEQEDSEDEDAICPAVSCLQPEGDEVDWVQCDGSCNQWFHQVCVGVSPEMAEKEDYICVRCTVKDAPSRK

SMILES	Potency	activity change, negative = inhibition
NS(=O)(=O)c1ccc(-c2ccc(/C=N/NC(=O)c3ccccc3O)o2)cc1	inconclusive: 25.1 µM [inhibitor, partial curve, poor fit]	
CN1CC(=O)N(c2ccccc2F)Cc2c(NC3CCOC3)ncnc21 (stereo not drawn)	inconclusive: 17.8 µM [inhibitor, single point]	
CCOc1ccc(NC(=O)C2CC(=O)N(c3n[nH]c4cccc(F)c34)C2)cc1 (stereo not drawn)	active: 22.4 µM	
CC(=O)Nc1ccc2c(C(C(=O)O)N3CCN(c4cc(C)c5ccccc5n4)CC3)c[nH]c2c1 (stereo not drawn)	inconclusive: 35.5 µM [inhibitor, partial curve, poor fit]	
O=C1COCC2(CN(CCCc3ccccc3)C2)CN1Cc1ccccc1	inactive	
C/C(=N/Nc1ccc(S(N)(=O)=O)cc1[N+](=O)[O-])c1cccc(Br)c1	inactive	
COc1ccc(/C=C/C(=O)Nc2sc(C)c(C)c2C(=O)O)cc1	inconclusive: 28.2 µM [inhibitor, single point]	
CCOc1cc(CN2CCN(S(=O)(=O)c3ccc(C)cc3)CC2)ccc1OC	inconclusive: 31.6 µM [inhibitor, single point]	
CCNc1nc(SC(C)C(=O)NC)nc2ccccc12 (stereo not drawn)	inactive	
CCC(=O)Nc1ccc(-c2c(-c3ccc(C)cc3)nn(-c3ccc(F)cc3)c2OC(C)=O)cc1	inconclusive: 39.8 µM [inhibitor, single point]	
O=c1c(N2CCc3ccccc3C2)csc2ccc(Cl)cc12	inconclusive: 25.1 µM [inhibitor, partial curve, poor fit]	
COc1ccc(CN2C(=O)[C@@H]3C[C@@H](CN3Cc3ccccc3Cl)Oc3ccccc32)cc1	inconclusive: 22.4 µM [inhibitor, partial curve, poor fit]	
C=CCC1Cc2c(N)cccc2C(CC=C)N1 (stereo not drawn)	inconclusive: 28.2 µM [inhibitor, single point]	
Cc1cc(C(=O)N2CCCN(Cc3ccncc3)C(c3ccccc3)CC(=O)NCC2)nn1C (stereo not drawn)	inconclusive: 25.1 µM [inhibitor, single point]	
O=c1[nH]c(=O)n(Cc2ccccc2)c2nc(-c3ccc(F)cc3)n(CC3CCCO3)c12 (stereo not drawn)	inconclusive: 39.8 µM [inhibitor, single point]	
CC(=O)c1ccc(NC(=O)Nc2ccc(Br)cc2C)cc1	inactive	
Cc1cc(C)cc(NS(=O)(=O)c2ccc(N3CCCCS3(=O)=O)cc2)c1	inconclusive: 3.16 µM [inhibitor, full curve, poor fit]	
CCc1ccc(NC(=O)CN2C(=O)CCSc3ccccc32)cc1	inactive	
COCC1CN(Cc2ccc(Br)cc2)CC12CCNCC2 (stereo not drawn)	inconclusive: 20 µM [inhibitor, partial curve, poor fit]	
O=C1Cc2c(-c3cccc(N4CCOCC4)c3)n[nH]c2CN1Cc1ccccn1	inconclusive: 39.8 µM [inhibitor, partial curve, poor fit]	
CC(C)Cc1nc2oc3c(NCC(C)O)ncnc3c2c2c1CCC2 (stereo not drawn)	inconclusive: 10 µM [inhibitor, partial curve, poor fit]	

SMILES	Potency	activity change, negative = inhibition
COC(=O)c1ccc(-n2c(C)cc(/C=N/Nc3nc(C)cc(=O)[nH]3)c2C)cc1	inconclusive: 28.2 µM [inhibitor, partial curve, poor fit]	
Cc1nc(SCC(=O)Nc2cccc3ccccc23)oc1C	inconclusive: 39.8 µM [inhibitor, single point]	
COc1ccc(-c2noc(COC(=O)c3nn(C)c4ccccc34)n2)cc1	inconclusive: 39.8 µM [inhibitor, partial curve, poor fit]	
Cc1cccc(C(=O)Nc2cccc(C(=O)N/N=C/c3ccccn3)c2)c1	inconclusive: 17.8 µM [inhibitor, partial curve, poor fit]	
CN(C)c1cccc(-c2cc(-c3cn[nH]c3)c3cncn3c2)c1	active: 39.8 µM	
CCOC(=O)c1cc(NC(=O)/C=C/C(=O)O)cc(C(=O)OCC)c1	inconclusive: 25.1 µM [inhibitor, single point]	
Cc1cc(C)cc(Nc2cc(C(=O)NC3CCC(C)CC3)c3ccccc3n2)c1 (stereo not drawn)	inconclusive: 39.8 µM [inhibitor, single point]	
CC(C)n1cc2cc(C(=O)NCc3ccccc3F)sc2c1	inconclusive: 17.8 µM [inhibitor, partial curve, poor fit]	
O=C(NCCO)c1cc(-c2ccc(Cl)cc2)nc2ccccc12	inconclusive: 39.8 µM [inhibitor, single point]	
CN(C)C[C@@H]1CN(C)C[C@H]1NS(=O)(=O)c1cc(F)cc(F)c1	inconclusive: 31.6 µM [inhibitor, partial curve, poor fit]	
O=C(Nc1ccccc1)C(=O)N1CCN(C(=O)c2cc3ccccc3[nH]2)CC1	inactive	
COc1ccc(C(=O)Nc2ccc(Nc3nc(C)cc(Nc4ccc(C)cc4)n3)cc2)cc1OC	inconclusive: 31.6 µM [inhibitor, single point]	
Cc1ccccc1C(=O)Nc1ccc(C(=O)NNC(=S)Nc2ccccc2)cc1	inactive	
COc1ccc(NC(=O)Cc2c(C)c3ccc(O)c(C)c3oc2=O)c(OC)c1	inconclusive: 25.1 µM [inhibitor, partial curve, poor fit]	
NS(=O)(=O)c1ccc(CCNC(=O)Cn2c(-c3cccs3)cc3ccccc32)cc1	inconclusive: 31.6 µM [inhibitor, partial curve, poor fit]	
Cc1cc2c(cc1C)NC(CC(=O)Nc1cccc(Cl)c1)C(=O)N2 (stereo not drawn)	inconclusive: 15.8 µM [inhibitor, partial curve, poor fit]	
COc1cccc(NC(=O)C2CC(=O)N(c3n[nH]c4cc(Br)ccc34)C2)c1 (stereo not drawn)	inconclusive: 14.1 µM [inhibitor, partial curve]	
CCOC(=O)N1C/C(=C\c2ccccc2)C(=O)/C(=C/c2ccccc2)C1	inconclusive: 10 µM [inhibitor, partial curve, poor fit]	
Cc1ccc2c(n1)N(C)[C@H](CO)CCN(Cc1ccncc1)C2	inconclusive: 35.5 µM [inhibitor, partial curve]	
Cc1cc2cc(-c3c(C)noc3C)nc(Nc3ccc(Cl)cc3)c2o1	active: 22.4 µM	
COc1ccc2c(c1)c1c(c(=O)n(-c3ccc(C)cc3)c(=O)n1CC(=O)NCc1ccc(C)cc1)n2C		inconclusive: -78.5% [inhibitor]

SMILES	Potency	activity change, negative = inhibition
CC(C)C[C@@H]1N[C@H](C(=O)NC2CCCC2)Cc2c[nH]c3cccc1c23	inactive	
COc1ccc(OCC(=O)Nc2cc(-c3nc4ccccc4s3)ccc2C)cc1	inconclusive: 28.2 µM [inhibitor, partial curve, poor fit]	
COc1cccc(C2C(C(=O)Nc3ccc(Cl)cc3)=C(C)Nc3nc4ccccc4n32)c1 (stereo not drawn)	inconclusive: 1 µM [inhibitor, full curve, poor fit]	
CCC(C)Sc1oc(-c2ccco2)nc1S(=O)(=O)c1ccc(C)cc1 (stereo not drawn)	inconclusive: 17.8 µM [inhibitor, partial curve, poor fit]	
COc1cccc(CC(=O)Nc2ccc(-c3nc4ccccc4s3)cc2)c1	inconclusive: 2 µM [inhibitor, full curve, poor fit]	
Cc1ccc(CNc2ncnc3c2cnn3-c2ccc(Cl)cc2)cc1	inconclusive: 25.1 µM [inhibitor, partial curve, poor fit]	
Cc1cc(C)c2oc(C(=O)Nc3nnc(SCc4ccccc4F)s3)cc(=O)c2c1	inactive	
CCc1nnc(NC(=O)c2cc(OC)c(OC)cc2OC)s1	inconclusive: 22.4 µM [inhibitor, single point]	
COc1cc(CC(=O)NCc2cccc(C(F)(F)F)c2)cc(OC)c1OC	inactive	
COc1ccc(CN2C(=O)[C@@H]3C[C@@H](CN3Cc3ccc(C(=O)O)cc3)Oc3ccccc32)cc1	inactive	
CCCNC(=O)c1ccc(OC(C)C)cc1	inactive	
Cc1ccccc1OCC(=O)Nc1ccc2nc(SCC(=O)N3CCc4ccccc43)sc2c1	inconclusive: 4.47 µM [inhibitor, full curve, poor fit]	
CCN1c2cc(C(=O)NCc3ccncc3)ccc2C(=O)N2CCCCCC21 (stereo not drawn)	inconclusive: 25.1 µM [inhibitor, partial curve, poor fit]	
Cc1ccc(-c2nnc([C@H]3CCN(Cc4cccc(C#N)c4)C3)o2)cc1	inconclusive: 35.5 µM [inhibitor, partial curve]	
CC(=O)Nc1ccc(NC(=O)c2cc3sccc3n2Cc2ccc(F)cc2)cc1	inconclusive: 15.8 µM [inhibitor, partial curve, poor fit]	
Cc1cc2nc(CSc3ccc(NC(=O)C(C)(C)C)cc3)c(=O)[nH]c2cc1C	inconclusive: 20 µM [inhibitor, partial curve, poor fit]	
COCCN1C(=O)c2[nH]nc(-c3cc(Cl)c(C)cc3O)c2C1c1ccc(O)c(OC)c1 (stereo not drawn)	inactive	
CCc1ccc(CN2CCc3nc(Nc4ccccc4)ncc3C2)cc1	inconclusive: 17.8 µM [inhibitor, single point]	
Cc1cccc2sc(N(Cc3cccnc3)C(=O)c3cccs3)nc12	inconclusive: 28.2 µM [inhibitor, single point]	
CCCc1cc(CN(C)c2nc(CCN)nc3sc(C)c(C)c23)[nH]n1	active: 22.4 µM	
CCc1ccccc1Nc1nn2c(=O)c3ccc(C(=O)NC(C)c4ccccc4)cc3nc2s1 (stereo not drawn)	inconclusive: 28.2 µM [inhibitor, partial curve, poor fit]	
